Test results from PubChem BioAssay AID1030 (National Center for Advancing Translational Sciences (NCATS), 2008).
About 16,000 (7.3%) of roughly 220,000 compounds were called active. Inconclusive results, whose numbers are uncertain, are shown with a selection of clear calls. Calls follow the shape of the dose curve; as a rule, active = well fitted inhibition curve with a large enough effect (not every such curve was filed as active); inconclusive = small, poorly fitted or top-dose-only effect, or another doubt; inactive = no such curve, though single readings can be large or run the other way. No potency is given beside an inconclusive call; the fits are too rough.

What follows are compounds tested against Aldehyde dehydrogenase 1A1 (Homo sapiens) (UniProt P00352) (assay: qHTS Assay for Inhibitors of Aldehyde Dehydrogenase 1 (ALDH1A1)). Details: Purified ALDH1A1, NADH fluorescence, propionaldehyde substrate; series mostly up to 75.3 µM.
Potency is read from the fitted curve at half-maximal effect; tags tell the direction and shape of the fitted curve.

UniProt P00352, sequence (P00352 whole entry, looked up): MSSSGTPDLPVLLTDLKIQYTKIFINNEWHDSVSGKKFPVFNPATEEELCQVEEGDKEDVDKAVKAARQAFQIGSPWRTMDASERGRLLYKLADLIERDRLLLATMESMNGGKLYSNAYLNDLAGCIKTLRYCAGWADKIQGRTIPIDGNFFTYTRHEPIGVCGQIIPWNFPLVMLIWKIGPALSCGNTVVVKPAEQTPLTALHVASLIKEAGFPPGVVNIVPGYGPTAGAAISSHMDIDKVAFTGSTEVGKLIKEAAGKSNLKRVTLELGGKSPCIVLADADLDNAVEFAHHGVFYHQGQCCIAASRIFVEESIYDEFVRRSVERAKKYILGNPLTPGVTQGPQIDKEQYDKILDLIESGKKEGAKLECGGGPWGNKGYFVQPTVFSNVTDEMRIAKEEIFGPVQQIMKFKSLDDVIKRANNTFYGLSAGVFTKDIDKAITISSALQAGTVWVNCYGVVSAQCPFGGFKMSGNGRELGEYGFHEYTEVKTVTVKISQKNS

| Structure (SMILES) | Potency |
| --- | --- |
| CN(C)S(=O)(=O)N1CCN(CC(=O)Nc2cc(Cl)ccc2Cl)CC1 | inconclusive [inhibitor, single point] |
| Cc1c(C)n(C(=O)CSc2nc3ccccc3[nH]2)c2ccccc12 | inconclusive [inhibitor, single point] |
| NS(=O)(=O)c1ccc(NN=C2CCN(Cc3ccccc3)CC2)c([N+](=O)[O-])c1 | inactive |
| N[C@@H](Cc1ccc(O)cc1)c1nnc([C@H](CO)NC(=O)C2CCNCC2)o1 | inactive |
| COc1ccc2c3c(cccc13)C(=O)N(O)C2=O | inconclusive [inhibitor, single point] |
| Cc1ccc(C2CC(c3ccc(C)cc3)n3nc(N)nc3N2)cc1 (stereo not drawn) | inactive |
| COc1ccc(C2/C=C\CN(S(=O)(=O)c3ccc(C)cc3)CC(=O)N2Cc2cccc(F)c2)cc1 (stereo not drawn) | inactive |
| CCOCCCNC(=O)c1c[nH]c2ccc(S(=O)(=O)Nc3cccc(OC)c3)cc2c1=O | inconclusive [inhibitor, single point] |
| CC(=O)N1CCN(c2ccccc2NC(=O)COc2ccc(Br)cc2)CC1 | inconclusive [inhibitor, single point] |
| Cc1noc(C)c1C(=O)N1CCCC(C(=O)c2cccc(OC(C)C)c2)C1 (stereo not drawn) | inactive |
| COc1ccc(O)c(/C=N/NC(=O)c2ccc(CSc3nc(C)cc(C)n3)cc2)c1 | inconclusive [inhibitor, single point] |
| CC(/C=C1\N=C(SCc2ccccc2)SC1=O)=C\c1ccccc1 | active: 22.4 µM |
| N#C/C(=N/Nc1ccc(S(=O)(=O)N2CCOCC2)cc1)C(N)=O | inactive |
| CC(C)(Oc1ccc(Br)cc1)C(=O)N1CCc2ccccc21 | inactive |
| CCOc1cc(/C=C2/N=C(c3ccc(C(C)(C)C)cc3)OC2=O)cc(Cl)c1OS(C)(=O)=O | active: 22.4 µM |
| CCc1ccc(S(=O)(=O)NCc2csc(-c3ccccc3)n2)s1 | inconclusive [inhibitor, partial curve] |
| CCCc1cc(=O)n2c(nc3ccccc32)[nH]1 | inconclusive [inhibitor, single point] |
| Cc1ccc(C(=O)NCC2CCCO2)cc1[N+](=O)[O-] (stereo not drawn) | inactive |
| Cc1ccc(S(=O)(=O)CC(=O)Nc2ccc(Cl)cn2)cc1 | inactive |
| O=C(Cn1cccc1)NC1CCCCCC1 | inactive |
| CCN(CC(=O)NCc1ccc(F)cc1)Cc1nc2cc(Cl)ccc2c(=O)[nH]1 | active: 22.4 µM |
| CCOC(=O)c1nn(-c2ccc(C)cc2)c(=O)c2c(N)scc12 | active: 17.8 µM |
| Cc1cc(NC(=O)c2cc3nc4c(c(C(F)(F)F)n3n2)CCc2ccccc2-4)no1 | inconclusive [inhibitor, single point] |
| CCCOc1ccc(CSCCNC(=S)Nc2ccccc2)cc1 | inconclusive [inhibitor, single point] |

| Structure (SMILES) | Potency |
| --- | --- |
| O=c1c2[nH]c3ccccc3c2nc2n1CCCS2 | inconclusive [inhibitor, single point] |
| O=c1c(-c2cccs2)nc2cnc(N3CCNCC3)nc2n1Cc1cccs1 | inconclusive [inhibitor, single point] |
| CC(CNC(=O)c1ccc(Br)o1)NC(=O)c1ccc(Br)o1 (stereo not drawn) | active: 28.2 µM |
| CCOC(=O)CN(C)S(=O)(=O)c1ccc(-c2cc(C(=O)OC)sc2C(F)(F)F)cc1 | active: 5.97 µM |
| CC(N)=O | inactive |
| Nc1ccccc1NC1=CC(=O)CC(c2ccco2)C1 (stereo not drawn) | inactive |
| CCn1c(SCc2nc3sc(C(=O)O)c(C)c3c(=O)[nH]2)nnc1-c1ccc(Cl)cc1 | active: 14.1 µM |
| Cc1cccc(NC(=O)c2cc([N+](=O)[O-])ccc2N2CCN(C)CC2)c1 | inconclusive [inhibitor, partial curve, poor fit] |
| Nc1ccc(N2CCCCC2)c2nonc12 | active: 7.94 µM |
| CN(C)c1ccc(C(=C2C=CC(=[N+](C)C)C=C2)c2c(O)c(S(=O)(=O)O)cc3cc(S(=O)(=O)O)ccc23)cc1 | active: 3.55 µM |
| CCOC(=O)c1c(N)sc(-c2ccccc2)c1C | inconclusive [inhibitor, single point] |
| COc1cc(-c2cc(=O)c3c(O)c(OC)c(OC)c(OC)c3o2)cc(OC)c1OC | active: 11.2 µM |
| COc1ncc2nc(-c3cc(F)cc(F)c3)c(=O)n(CCC#N)c2n1 | inconclusive [inhibitor, single point] |
| OCCC1CN(CCCn2cccn2)CCN1Cc1ccccc1 (stereo not drawn) | inactive |
| COc1ccc(S(=O)(=O)c2c(C)c(NS(=O)(=O)c3ccccc3)cc(C)c2O)cc1 | active: 8.91 µM |
| C[C@@H](CN1C2=NC[C@H](C)N2C[C@H]1Cc1ccc(O)cc1)NC(=O)CCC1CCCCC1 | inconclusive [inhibitor, partial curve] |
| O=C(COC(=O)c1ccc([N+](=O)[O-])o1)Nc1cccc(S(=O)(=O)N2CCOCC2)c1 | active: 1 µM |
| OCCNc1nc(C2CC2)nc2c1nnn2Cc1ccccc1Cl | inconclusive [inhibitor, partial curve] |
| CCCC1C(C#N)=C(N)Oc2n[nH]c(C(C)(C)C)c21 (stereo not drawn) | inconclusive [inhibitor, single point] |
| Cc1ccc(-n2c(CSc3nc(C)cc(C)n3)nnc2SCC(=O)N2CCCC2)cc1 | inconclusive [inhibitor, single point] |
| Cn1c(=O)c2c(nc(CN3CCN(Cc4ccccc4)CC3)n2Cc2ccc(Cl)cc2)n(C)c1=O | inconclusive [inhibitor, single point] |
| CCCCNC1=CC(=O)C(=O)c2ccccc21 | inconclusive [inhibitor, single point] |
| COC(=O)CN1C(=O)C(C)=C(c2ccc(C)cc2)S1(=O)=O | inconclusive [inhibitor, single point] |
| COc1ccc2cc3cc(C(=O)NCCCN4CCc5ccccc5C4)sc3nc2c1 | inconclusive [inhibitor, partial curve] |
